{"source": "the BET-seq Pho4 binding data (Le et al. 2018)", "note": "This is one part of the list. These are noisy estimates, calculated here from bound and input reads."}
{"biological_target": "T1, Pho4 (S. cerevisiae) (UniProt P07270)", "T1 sequence": "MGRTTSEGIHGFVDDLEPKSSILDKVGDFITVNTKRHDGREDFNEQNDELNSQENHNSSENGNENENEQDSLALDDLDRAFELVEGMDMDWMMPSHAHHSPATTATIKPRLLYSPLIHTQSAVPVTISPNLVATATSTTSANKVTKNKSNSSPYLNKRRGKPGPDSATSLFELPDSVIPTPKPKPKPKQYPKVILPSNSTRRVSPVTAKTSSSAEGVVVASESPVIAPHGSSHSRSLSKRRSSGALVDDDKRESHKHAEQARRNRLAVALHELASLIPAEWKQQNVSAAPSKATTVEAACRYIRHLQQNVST", "experiment": "relative binding free energy (BET-seq); higher = weaker binding", "conditions": "reference: library average", "units": {"relative binding free energy": "kcal/mol"}}
{"sequence": "GCGCGCACGTGTTGTT", "relative binding free energy": -0.05}
{"sequence": "GCTGGCACGTGGTTGT", "relative binding free energy": -0.14}
{"sequence": "TGGCACACGTGTGTCG", "relative binding free energy": 0.05}
{"sequence": "GGATGCACGTGGTTTG", "relative binding free energy": 0.03}
{"sequence": "AGATTCACGTGCAGGG", "relative binding free energy": 0.19}
{"sequence": "GGTGGCACGTGGTCGA", "relative binding free energy": -0.19}
{"sequence": "AGATGCACGTGATGGC", "relative binding free energy": 0.23}
{"sequence": "GTTATCACGTGTAGAG", "relative binding free energy": 0.32}
{"sequence": "TAGGTCACGTGTACTG", "relative binding free energy": 0.17}
{"sequence": "GTGATCACGTGGTCGT", "relative binding free energy": 0.18}
{"sequence": "GCTATCACGTGTGTAT", "relative binding free energy": 0.31}
{"sequence": "TTTTGCACGTGGTGTA", "relative binding free energy": -0.11}
{"sequence": "GTTATCACGTGTACGG", "relative binding free energy": 0.1}
{"sequence": "TATTGCACGTGTCAAT", "relative binding free energy": -0.04}
{"sequence": "AATTACACGTGTTTTA", "relative binding free energy": 0.05}
{"sequence": "TTATCCACGTGTGGTA", "relative binding free energy": -0.04}
{"sequence": "TTTCACACGTGTGAAT", "relative binding free energy": 0.16}
{"sequence": "AGGGGCACGTGGATAC", "relative binding free energy": -0.19}
{"sequence": "ATGTGCACGTGTATCT", "relative binding free energy": -0.06}
{"sequence": "AGAAGCACGTGAGGGC", "relative binding free energy": 0.18}
{"sequence": "TTGTGCACGTGTGTGT", "relative binding free energy": 0.01}
{"sequence": "GTTAGCACGTGGGGTT", "relative binding free energy": -0.12}
{"sequence": "GGGGGCACGTGGTTGA", "relative binding free energy": -0.04}
{"sequence": "GGAGGCACGTGAAGTG", "relative binding free energy": 0.21}
{"sequence": "CGGGTCACGTGTCTAG", "relative binding free energy": 0.15}
{"sequence": "GGTTACACGTGAGTCA", "relative binding free energy": 0.27}
{"sequence": "GTGTACACGTGCGTGA", "relative binding free energy": -0.04}
{"sequence": "GTGTTCACGTGGAGCA", "relative binding free energy": 0.27}
{"sequence": "GTTGTCACGTGTGAGC", "relative binding free energy": 0.33}
{"sequence": "ATATGCACGTGGCGAT", "relative binding free energy": -0.18}
{"sequence": "GTATTCACGTGGTGGG", "relative binding free energy": 0.26}
{"sequence": "TTAAGCACGTGAGGGG", "relative binding free energy": 0.19}
{"sequence": "ATAGACACGTGTATGG", "relative binding free energy": -0.03}
{"sequence": "CGGGTCACGTGGGTAT", "relative binding free energy": 0.02}
{"sequence": "TTCATCACGTGTTAGA", "relative binding free energy": 0.33}
{"sequence": "AATCTCACGTGGGTTT", "relative binding free energy": 0.13}
{"sequence": "TTCATCACGTGCGGGG", "relative binding free energy": 0.22}
{"sequence": "GTGCACACGTGTGTAG", "relative binding free energy": -0.02}
{"sequence": "TAATACACGTGGTTAC", "relative binding free energy": 0.19}
{"sequence": "CTGTTCACGTGCAAGG", "relative binding free energy": 0.4}
{"sequence": "ATATTCACGTGGGGTC", "relative binding free energy": 0.07}
{"sequence": "TAATTCACGTGCTGAT", "relative binding free energy": 0.22}
{"sequence": "GGCGTCACGTGTTGAT", "relative binding free energy": 0.2}
{"sequence": "GAAAGCACGTGGCGGT", "relative binding free energy": -0.08}
{"sequence": "TCTCACACGTGTGGTG", "relative binding free energy": 0.04}
{"sequence": "GTTATCACGTGGACGG", "relative binding free energy": 0.19}
{"sequence": "AGGCCCACGTGGGGGG", "relative binding free energy": -0.27}
{"sequence": "TGATACACGTGGACGG", "relative binding free energy": 0.06}
{"sequence": "TGCTTCACGTGGGGCG", "relative binding free energy": 0.21}
{"sequence": "CGGATCACGTGGTTAT", "relative binding free energy": 0.13}
{"sequence": "AGGTCCACGTGAGAGT", "relative binding free energy": 0.17}
{"sequence": "CCCGGCACGTGGTGGG", "relative binding free energy": -0.15}
{"sequence": "GGAAGCACGTGGTAAT", "relative binding free energy": -0.1}
{"sequence": "CCAGGCACGTGGGTTG", "relative binding free energy": -0.21}
{"sequence": "TGTGACACGTGTCAGG", "relative binding free energy": -0.05}
{"sequence": "ACGGCCACGTGAGGTG", "relative binding free energy": 0.09}
{"sequence": "TAGTCCACGTGTTGAT", "relative binding free energy": 0.07}
{"sequence": "GTGAACACGTGGGGGT", "relative binding free energy": -0.14}
{"sequence": "GGAGTCACGTGCGTAA", "relative binding free energy": 0.14}
{"sequence": "GTGCTCACGTGGGAAT", "relative binding free energy": 0.3}
{"sequence": "CTAGTCACGTGTGATG", "relative binding free energy": 0.13}
{"sequence": "CAATGCACGTGGGTGA", "relative binding free energy": 0}
{"sequence": "TTACGCACGTGTCGGG", "relative binding free energy": -0.1}
{"sequence": "TGTGACACGTGGGAAG", "relative binding free energy": -0.08}
{"sequence": "GGGCGCACGTGGGTAA", "relative binding free energy": -0.19}
{"sequence": "ATAATCACGTGAGTGA", "relative binding free energy": 0.18}
{"sequence": "GTTTTCACGTGGCTGA", "relative binding free energy": 0.27}
{"sequence": "GGCTTCACGTGAAGCG", "relative binding free energy": 0.43}
{"sequence": "AGCGACACGTGTGTGG", "relative binding free energy": 0.06}
{"sequence": "AGGGTCACGTGATGAT", "relative binding free energy": 0.16}
{"sequence": "ATATGCACGTGATTGG", "relative binding free energy": 0.14}
{"sequence": "TGGTCCACGTGTTGTA", "relative binding free energy": 0.08}
{"sequence": "GGGATCACGTGGCTAA", "relative binding free energy": 0.3}
{"sequence": "ATGGACACGTGGTTTC", "relative binding free energy": 0.05}
{"sequence": "GCTTTCACGTGAGTAT", "relative binding free energy": 0.48}
{"sequence": "AGGTTCACGTGCGGAT", "relative binding free energy": 0.17}
{"sequence": "TGTATCACGTGGTCCT", "relative binding free energy": 0.04}
{"sequence": "TTCTGCACGTGACGGG", "relative binding free energy": 0.17}
{"sequence": "ACAGTCACGTGGAGGG", "relative binding free energy": -0.06}
{"sequence": "AACTTCACGTGTGGGG", "relative binding free energy": 0.13}
{"sequence": "TTTTCCACGTGTGTCT", "relative binding free energy": 0.04}
{"sequence": "TATCGCACGTGTGTAT", "relative binding free energy": -0.01}
{"sequence": "GGGCACACGTGTTATA", "relative binding free energy": 0.18}
{"sequence": "GATTGCACGTGTATTA", "relative binding free energy": 0.24}
{"sequence": "TGATTCACGTGAGAAA", "relative binding free energy": 0.48}
{"sequence": "GGATACACGTGATGGA", "relative binding free energy": 0.29}
{"sequence": "TTTTCCACGTGGTAGT", "relative binding free energy": 0.04}
{"sequence": "TGGGACACGTGCTTAG", "relative binding free energy": -0.1}
{"sequence": "GCTTTCACGTGTCATT", "relative binding free energy": 0.35}
{"sequence": "CGATACACGTGCTGGG", "relative binding free energy": 0.17}
{"sequence": "AGGTGCACGTGGTGTT", "relative binding free energy": -0.15}
{"sequence": "AGCTACACGTGGTGAG", "relative binding free energy": 0.03}
{"sequence": "GGTATCACGTGGCAGG", "relative binding free energy": 0.05}
{"sequence": "TCATACACGTGGGGGG", "relative binding free energy": -0.01}
{"sequence": "GAGATCACGTGGGTGT", "relative binding free energy": -0.06}
{"sequence": "CGTAGCACGTGGGTGG", "relative binding free energy": -0.21}
{"sequence": "TTTGACACGTGATGTG", "relative binding free energy": 0.09}
{"sequence": "GTTTGCACGTGGTTTC", "relative binding free energy": -0.02}
{"sequence": "GTAGGCACGTGTAAGT", "relative binding free energy": -0.06}
{"sequence": "TCCTACACGTGGTGGG", "relative binding free energy": 0.05}
{"sequence": "TTTTCCACGTGTTGGC", "relative binding free energy": 0.3}
{"sequence": "GGTTACACGTGTTGGC", "relative binding free energy": 0.24}
{"sequence": "GTTGCCACGTGAGGAT", "relative binding free energy": 0.17}
{"sequence": "GGGTTCACGTGTCGTG", "relative binding free energy": 0.19}
{"sequence": "GTACTCACGTGTAGTT", "relative binding free energy": 0.31}
{"sequence": "TGGAGCACGTGGCGGT", "relative binding free energy": -0.15}
{"sequence": "TTAGGCACGTGACTGG", "relative binding free energy": -0.1}
{"sequence": "AGTATCACGTGGAAAG", "relative binding free energy": 0.26}
{"sequence": "TAATGCACGTGGCGAT", "relative binding free energy": 0.05}
{"sequence": "TTATGCACGTGTCGAG", "relative binding free energy": -0.09}
{"sequence": "TGTGGCACGTGAAGTA", "relative binding free energy": 0.24}
{"sequence": "TCGGGCACGTGGCCTG", "relative binding free energy": -0.12}
{"sequence": "TTTCACACGTGAGTAG", "relative binding free energy": 0.35}
{"sequence": "GGTGCCACGTGGTAAG", "relative binding free energy": -0.02}
{"sequence": "TGCTACACGTGGATGT", "relative binding free energy": 0.03}
